{"source": "PubChem BioAssay AID602179", "about": "(National Center for Advancing Translational Sciences (NCATS), 2012)", "note": "Among all 390,000 compounds or so, about 360 (0.092%) were called active. This list was built around the results that the source calls inconclusive (neither active nor inactive); the mix of calls is not that of the screen. Calls follow the shape of the dose curve; as a rule, active = well fitted inhibition curve with a large enough effect; inconclusive = small, poorly fitted or top-dose-only effect; inactive = no such curve, though single readings can be large or run the other way. Potencies of inconclusive entries are doubtful fits and often do not repeat. % is scaled to controls: 0 for no effect and ±100 for the full control effect; potency is read from the fitted curve at half-maximal effect; tags tell the direction and shape of the fitted curve.", "data": [{"target": "Isocitrate dehydrogenase [NADP] cytoplasmic (Homo sapiens) (UniProt O75874)", "test": "qHTS for Inhibitors of mutant isocitrate dehydrogenase 1 (IDH1): qHTS; also: nearly all actives have a fitted effect of over 65% in size", "settings": "IDH1-R132H enzyme, NADPH consumption, diaphorase/resazurin fluorescence; series mostly up to 76.6 µM; activity change, negative = inhibition: at the top concentration", "outline": "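IDH1-R132H (0.5 ug/mL dispensed) in pH 7.5 Tris buffer was preincubated 30 min with compound, then given a substrate mix of 0.016 mM NADPH and 2 mM alpha-KG for 80 min at room temperature; remaining NADPH was read by diaphorase/resazurin fluorescence.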", "values": [{"compound": "C=CCn1c(=O)/c(=C/c2ccc(Cl)cc2)s/c1=C(/C#N)c1nnc2n1CCCCC2", "Potency": "inconclusive: 46.5 µM [inhibitor, partial curve, poor fit]"}, {"compound": "Cc1ccc(C)c(NS(=O)(=O)c2ccc3oc(=O)ccc3c2)c1", "Potency": "inconclusive: 58.5 µM [inhibitor, single point]"}, {"compound": "Cc1ccc(-n2nc(C)c3c(C(=O)NCCc4ccccc4)cc(C)nc32)cc1", "Potency": "inconclusive: 63.1 µM [inhibitor, partial curve, poor fit]"}, {"compound": "COCCn1c(SCC(=O)NCCc2ccccc2)nnc1-c1ccco1", "activity change, negative = inhibition": "inactive: 0.547%"}, {"compound": "CCCCOc1ccc(C2=CSC3=NCCN23)cc1[N+](=O)[O-]", "activity change, negative = inhibition": "inactive: 2.14%"}, {"compound": "CCCc1noc2c1C(c1cc(Br)ccc1F)C(C#N)=C(N)N2", "note": "(stereo unspecified)", "Potency": "active: 52.1 µM"}, {"compound": "CCC(=O)NC(c1cccs1)c1cc([N+](=O)[O-])c2cccnc2c1O", "note": "(stereo unspecified)", "Potency": "inconclusive: 58.5 µM [inhibitor, single point]"}, {"compound": "CCCOc1ccc(CN2C(=O)C(=O)c3cccc(C)c32)cc1", "Potency": "inconclusive: 50.1 µM [inhibitor, partial curve, poor fit]"}, {"compound": "Oc1ccc(-c2nc3c4c(ncn3n2)-c2ccccc2CC42CCCC2)cc1", "Potency": "inconclusive: 46.5 µM [inhibitor, partial curve]"}, {"compound": "CCc1cccc(CC)c1NC(=O)CSc1nc2ccc(N3C(=O)C4C(C3=O)[C@H]3C=C[C@@H]4C3)cc2s1", "note": "(stereo partly specified)", "activity change, negative = inhibition": "inactive: 17.8%"}, {"compound": "O=C(Nc1nc2c(s1)CCCC2)c1ccccc1F", "activity change, negative = inhibition": "inactive: 5.05%"}, {"compound": "CC(/C=C1\\SC(=S)N(NC(=O)c2ccc(C)cc2)C1=O)=C\\c1ccccc1", "activity change, negative = inhibition": "inactive: 1.73%"}, {"compound": "Cc1ccc(CNC(=O)c2c[nH]n3c(=O)c(Cc4ccc(F)cc4Cl)c(C)nc23)cc1", "Potency": "inconclusive: 50.1 µM [inhibitor, single point]"}, {"compound": "C[C@H](CO)N1C[C@H](C)[C@@H](CN(C)Cc2ccc(Cl)c(Cl)c2)Oc2c(NC(=O)Cc3ccccc3)cccc2C1=O", "Potency": "inconclusive: 44.7 µM [inhibitor, partial curve, poor fit]"}, {"compound": "CCC(C)(C)NC(=O)C(c1ccc(C)o1)N(Cc1cccs1)C(=O)Cn1nnc2ccccc21", "note": "(stereo unspecified)", "Potency": "inconclusive: 18.5 µM [inhibitor, full curve]"}, {"compound": "Cc1ccc(OCCn2c(C3CC(=O)N(Cc4ccccc4)C3)nc3ccccc32)cc1", "note": "(stereo unspecified)", "Potency": "inconclusive: 50.1 µM [inhibitor, single point]"}, {"compound": "Cc1noc(C)c1C(=O)Nc1sc2c(c1C(N)=O)CCCCC2", "activity change, negative = inhibition": "inactive: 0.419%"}, {"compound": "CC(C)(C)C1CCc2c(sc(NC(=O)CCC(=O)O)c2C(=O)Nc2ccccc2C(F)(F)F)C1", "note": "(stereo unspecified)", "Potency": "inconclusive: 44.7 µM [inhibitor, partial curve, poor fit]"}, {"compound": "COc1ccccc1Nc1c2c(nc3ccc(NC(=O)c4cccc(OC)c4OC)cc13)CCCC2", "Potency": "inconclusive: 31.6 µM [inhibitor, partial curve]"}, {"compound": "COc1cc2c(-c3ccc(O)cc3)nc3c(c(C)nn3-c3ccccc3)c2cc1OC", "Potency": "inconclusive: 23.3 µM [inhibitor, full curve]"}, {"compound": "O=C(NCc1cccnc1)/C(=C\\c1ccc(-c2ccc(Cl)c(Cl)c2)o1)S(=O)(=O)c1ccccc1", "Potency": "inconclusive: 58.5 µM [inhibitor, single point]"}, {"compound": "Clc1ccc(N=c2ssnc2Cl)nc1", "Potency": "inconclusive: 46.5 µM [inhibitor, partial curve]"}, {"compound": "COc1cccc(C2c3c(-c4ccccc4O)n[nH]c3C(=O)N2CCc2ccc(OC)c(OC)c2)c1", "note": "(stereo unspecified)", "Potency": "inconclusive: 44.7 µM [inhibitor, partial curve]"}, {"compound": "C[C@H](CO)N1C[C@H](C)[C@@H](CN(C)Cc2ccc(Cl)c(Cl)c2)Oc2c(NC(=O)C3CC3)cccc2C1=O", "Potency": "inconclusive: 31.6 µM [inhibitor, partial curve]"}, {"compound": "CCOC(=O)c1c(NC(=O)/C=C/C(=O)O)sc(C)c1-c1ccc(C)c(C)c1", "Potency": "active: 23.3 µM"}, {"compound": "Cc1ccccc1C(C(=O)NC1CCCC1)N(C(=O)Cc1cccs1)c1ccc2c(c1)OCCO2", "note": "(stereo unspecified)", "Potency": "active: 6.56 µM"}, {"compound": "CCC(C)(C)NC(=O)C(c1cccn1C)N(Cc1ccc(C)cc1)C(=O)Cn1nnc2ccccc21", "note": "(stereo unspecified)", "Potency": "inconclusive: 52.1 µM [inhibitor, partial curve, poor fit]"}, {"compound": "O=C1c2[nH]nc(-c3ccccc3O)c2C(c2cccc(Cl)c2)N1Cc1cccnc1", "note": "(stereo unspecified)", "Potency": "inconclusive: 44.7 µM [inhibitor, partial curve, poor fit]"}, {"compound": "CCNC(=O)NC(=O)C(C)OC(=O)c1oc2ccccc2c1CSC1CCCCC1", "note": "(stereo unspecified)", "Potency": "inconclusive: 23.3 µM [inhibitor, full curve]"}, {"compound": "CCOC(=O)c1ccc(N2C(=O)c3n[nH]c(-c4ccco4)c3C2c2ccc(O)c(OC)c2)cc1", "note": "(stereo unspecified)", "Potency": "inconclusive: 44.7 µM [inhibitor, partial curve, poor fit]"}, {"compound": "O=C1NC[C@H](Cc2ccccc2)N(C[C@H]2CCCN2C[C@H](Cc2ccccc2)N2C[C@H](Cc3ccccc3)N(CCc3ccccc3)C(=O)C2=O)C1=O", "Potency": "inconclusive: 35.5 µM [inhibitor, partial curve]"}, {"compound": "CCOC(=O)N1CCc2c(sc3c2c(=O)n(-c2ccc(CC)cc2)c(=O)n3CC(=O)Nc2ccc(C)cc2)C1", "activity change, negative = inhibition": "inactive: 0%"}, {"compound": "CCOCCCn1c(=N)c(C(N)=S)cc2c(=O)n3cccc(C)c3nc21", "activity change, negative = inhibition": "inactive: 10%"}, {"compound": "CC(=O)Nc1ccc(S(=O)(=O)N2CCN=C2SCc2cccc(C)c2)cc1", "activity change, negative = inhibition": "inactive: 5.28%"}, {"compound": "CCOC(=O)c1c(NC(=O)/C=C/C(=O)O)sc(C)c1-c1ccc(Cl)cc1", "Potency": "inconclusive: 58.5 µM [inhibitor, single point]"}, {"compound": "Cc1ccc(C(O)(C(=O)NN(C(=O)c2ccccc2)c2ccccc2)c2ccc(C)cc2)cc1", "activity change, negative = inhibition": "inactive: -6.36%"}, {"compound": "N#Cc1ccc(Nc2nc(-c3ccc(O)cc3O)cs2)cc1C(F)(F)F", "Potency": "inconclusive: 44.7 µM [inhibitor, partial curve, poor fit]"}, {"compound": "CCC(=O)Nc1cc(Cl)ccc1C(=O)O", "activity change, negative = inhibition": "inactive: -0.96%"}, {"compound": "CCCCN1C(=O)c2ccc(C(=O)NCCN3C(=O)S/C(=C\\c4cccnc4)C3=O)cc2C1=O", "Potency": "inconclusive: 52.1 µM [inhibitor, single point]"}, {"compound": "CCc1ccc(S(=O)(=O)Nc2cc3c(cc2N2CCCCC2)n(C)c(=O)c(=O)n3C)cc1", "Potency": "inconclusive: 58.5 µM [inhibitor, partial curve, poor fit]"}, {"compound": "COC(=O)c1ccc2c(c1)C(C)(C)C(/C=C/c1ccccc1O)=[N+]2C", "Potency": "active: 35.5 µM"}, {"compound": "CC1=C(C#N)C(=O)NC(=O)/C1=C\\c1ccc(-c2ccc(C)cc2[N+](=O)[O-])o1", "activity change, negative = inhibition": "inactive: 10.8%"}, {"compound": "CCOc1ccccc1Nc1cc(C)nc2nc(C)nn12", "activity change, negative = inhibition": "inactive: 3.33%"}, {"compound": "Cc1ccc(-n2ncc3c(NCCC4=CCCCC4)ncnc32)cc1", "activity change, negative = inhibition": "inactive: 2.79%"}, {"compound": "O=S(=O)(c1ccc(-c2n[nH]c(=S)o2)cc1)N1CCCC1", "Potency": "inconclusive: 58.5 µM [inhibitor, partial curve, poor fit]"}, {"compound": "CCc1nnc(NS(=O)(=O)c2ccc(N/C=C\\C(=O)c3ccc4ccccc4c3)cc2)s1", "Potency": "inconclusive: 58.5 µM [inhibitor, single point]"}, {"compound": "CCOc1ccc(C2Nc3ccccc3-c3nnc(SCc4ccccc4)nc3O2)cc1OC", "note": "(stereo unspecified)", "Potency": "inconclusive: 50.1 µM [inhibitor, single point]"}, {"compound": "COc1ccc(C(C)=NNc2ccc([N+](=O)[O-])cc2S(=O)(=O)Nc2ccccc2C(=O)O)c(OC)c1", "Potency": "inconclusive: 58.5 µM [inhibitor, single point]"}, {"compound": "CC(C)CNc1ncnc2c1sc1nc(N3CCOCC3)c3c(c12)CC(C)(C)OC3", "activity change, negative = inhibition": "inactive: -0.0635%"}, {"compound": "Cc1ccc(S(=O)(=O)Nc2ccc3c(c2)C(=O)N([C@H](C)CO)C[C@H](C)[C@@H](CN(C)C(=O)NC2CCCCC2)OCCCC[C@@H](C)O3)cc1", "Potency": "inconclusive: 44.7 µM [inhibitor, partial curve, poor fit]"}, {"compound": "CN1C(=O)Cc2cc(S(=O)(=O)CCC(=O)N3CCN(c4ccccc4F)CC3)ccc21", "Potency": "inconclusive: 50.1 µM [inhibitor, single point]"}, {"compound": "CC(C)[C@H](NC(=O)c1ccccc1Cl)C(=O)Nc1ccc(S(=O)(=O)Nc2nccs2)cc1", "Potency": "inconclusive: 58.5 µM [inhibitor, single point]"}, {"compound": "CC(C)CNc1nnnc2c1sc1nc(N3CCOCC3)c3c(c12)CC(C)(C)SC3", "Potency": "inconclusive: 13.1 µM [inhibitor, partial curve, poor fit]"}, {"compound": "COc1ccccc1C1=NNC(=Nc2cccc(S(=O)(=O)N(C)C)c2)SC1", "Potency": "inconclusive: 8.91 µM [inhibitor, full curve, poor fit]"}, {"compound": "Cc1cc(C)c(C#N)c(SCc2[nH]nc3c2C(c2ccc(F)cc2)C(C#N)=C(N)O3)n1", "note": "(stereo unspecified)", "Potency": "inconclusive: 36.9 µM [inhibitor, partial curve]"}, {"compound": "Cc1c(CCC(C)C)c(-n2ccnc2C)n2c(nc3ccccc32)c1C#N", "Potency": "inconclusive: 2.24 µM [inhibitor, partial curve, poor fit]"}, {"compound": "Cc1cccn2c(=O)c3cc(C(=O)NCc4ccccc4)c(=N)n(CCOCCO)c3nc12", "activity change, negative = inhibition": "inactive: -6.47%"}, {"compound": "COCCn1c(=O)[nH]c2cc(C(=O)NCCCN3CCN(c4ccc(F)cc4)CC3)ccc2c1=O", "activity change, negative = inhibition": "inactive: 10.5%"}, {"compound": "CC(c1ccc(Cl)cc1)n1c(-c2ccc3ccccc3n2)n[nH]c1=S", "note": "(stereo unspecified)", "Potency": "inconclusive: 58.5 µM [inhibitor, single point]"}, {"compound": "Cc1cccc(C2CC(=O)Oc3c2c(=O)n(C)c2ccccc32)c1", "note": "(stereo unspecified)", "Potency": "inconclusive: 63.1 µM [inhibitor, single point]"}, {"compound": "COc1ccc(C(C#N)=C2C=C(Cl)C(=NO)C=C2Cl)cc1", "Potency": "inconclusive: 44.7 µM [inhibitor, partial curve, poor fit]"}]}]}
